The source of these data is PMC4336329 (PLoS ONE, 2015).

About 2,200 (0.71%) of roughly 310,000 compounds showed an effect of 50% or more. The effect is printed as a negative number. The list shows a part of the results.

human ether-à-go-go-related gene (hERG) potassium channel, sequence (Q12809 whole entry, looked up): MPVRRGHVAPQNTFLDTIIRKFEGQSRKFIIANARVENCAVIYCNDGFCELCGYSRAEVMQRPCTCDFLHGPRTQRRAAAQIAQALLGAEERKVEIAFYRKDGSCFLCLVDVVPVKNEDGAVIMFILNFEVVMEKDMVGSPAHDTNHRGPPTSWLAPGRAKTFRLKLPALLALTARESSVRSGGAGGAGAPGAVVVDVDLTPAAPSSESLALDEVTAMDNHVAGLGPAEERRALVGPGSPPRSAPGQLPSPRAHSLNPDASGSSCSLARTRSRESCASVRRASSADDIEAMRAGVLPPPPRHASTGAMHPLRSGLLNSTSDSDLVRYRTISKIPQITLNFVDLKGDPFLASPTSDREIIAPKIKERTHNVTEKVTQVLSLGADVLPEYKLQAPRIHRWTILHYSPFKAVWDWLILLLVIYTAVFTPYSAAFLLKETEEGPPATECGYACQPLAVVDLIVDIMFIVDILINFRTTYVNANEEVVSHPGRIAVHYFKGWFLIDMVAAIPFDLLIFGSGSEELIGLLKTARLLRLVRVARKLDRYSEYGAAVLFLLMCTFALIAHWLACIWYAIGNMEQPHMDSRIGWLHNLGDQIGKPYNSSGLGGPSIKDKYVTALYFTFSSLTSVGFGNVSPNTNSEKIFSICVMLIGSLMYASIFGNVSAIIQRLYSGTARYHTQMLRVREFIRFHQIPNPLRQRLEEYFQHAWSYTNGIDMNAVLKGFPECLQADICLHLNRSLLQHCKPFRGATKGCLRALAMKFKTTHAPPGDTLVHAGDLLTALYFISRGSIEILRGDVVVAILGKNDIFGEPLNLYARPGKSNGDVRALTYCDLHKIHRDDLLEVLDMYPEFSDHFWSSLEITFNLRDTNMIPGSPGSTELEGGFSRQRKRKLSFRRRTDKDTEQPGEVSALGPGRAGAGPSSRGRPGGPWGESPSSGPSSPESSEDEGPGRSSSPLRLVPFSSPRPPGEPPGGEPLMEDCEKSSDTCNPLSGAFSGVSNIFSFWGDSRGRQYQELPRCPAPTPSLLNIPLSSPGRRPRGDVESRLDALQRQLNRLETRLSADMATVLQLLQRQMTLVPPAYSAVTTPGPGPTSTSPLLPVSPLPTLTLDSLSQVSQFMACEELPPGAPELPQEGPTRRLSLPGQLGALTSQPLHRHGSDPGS

This assay addresses human ether-à-go-go-related gene (hERG) potassium channel (human, UniProt Q12809). The assay is described as follows: primary screen, population patch clamp on CHO cells stably expressing hERG.
On to `CCc1ccccc1OCc1nnc(N)s1`, for which the “hERG current change (%, negative = inhibition) at 1uM” value came out at 6.39%.

Consider `O=C1c2ccccc2CN1c1ccccc1`, for which the “hERG current change (%, negative = inhibition) at 1uM” value is recorded as 14%. Then `CCC1C(=O)C(CC)C(c2ccccc2)NC1c1ccccc1` (stereo not drawn), with 13.8%; and `Cc1ccc(NC(=O)C2CCCN(C(=O)c3ccc(Cl)cc3)C2)cc1` (stereo not drawn), with 1.45%; and `CC(=O)Nc1ccc(NC(=O)c2ccccc2S(=O)(=O)c2ccc([N+](=O)[O-])cc2)cc1`, with 12.1%. Then `O=C(c1cccc(S(=O)(=O)Nc2ccccc2Cl)c1)N1CCN(c2ccccc2O)CC1`, with 8.89%; and `CCOC(=O)Cn1c(=O)c2c(nc(Br)n2CC(=O)OCC)n(C)c1=O`, with 6.79%. Then `COc1ccccc1CN1C(=O)C(=O)N(Cc2cccc(C)c2)C1=O`, with 8.03%; and `CCCCNS(=O)(=O)c1ccc2nc(SCC(=O)c3ccccc3OC)[nH]c2c1`, with 7.06%; and `Cc1nn(Cc2c(F)c(F)c(F)c(F)c2F)c(C)c1NC(=O)c1ccc(COc2ccccc2Cl)o1`, with -6.54%. Regarding `O=C(N/N=C1\CC2CC=CC12)c1ccccc1Cl` (stereo not drawn), the “hERG current change (%, negative = inhibition) at 1uM” value is recorded as 6.21%. The result for `Nc1c(C(=O)NC2CC2)c2nc3ccccc3nc2n1-c1ccc2c(c1)OCO2` reads 8.46%; that for `CC(C)c1ccc(N)c(S(=O)(=O)O)c1`, 8.42%. Then `CCN(CC)c1ncnc2sc3c(c12)CCC3.Cl`, with 4.44%; and `CCN(CC)c1ccc(CNc2nnnn2C)cc1`, with 22.1%. The result for `COc1cc(C2CC(C(F)(F)F)n3ncc(C(=O)O)c3N2)cc(OC)c1OC` (stereo not drawn) reads 9.4%; that for `Cn1ccnc1SCC(=O)Nc1cc(C(F)(F)F)ccc1N1CCOCC1`, -0.591%; that for `CC(=O)Nc1ccc(S(=O)(=O)NC2(C(F)(F)F)NC(=O)N(CC(C)C)C2=O)cc1` (stereo not drawn), 12.4%. In the case of `NS(=O)(=O)c1ccc(OC(=O)CNC(=O)OCc2ccccc2)cc1`, the “hERG current change (%, negative = inhibition) at 1uM” value was 5.88%. Then `Cc1cccc(N(C)S(=O)(=O)c2csc(C(N)=O)c2)c1`, with 12.7%; and `CCCc1cc(C(=O)NNC(=S)NCC)c2ccccc2n1`, with 12.1%; and `CN(Cc1ccccc1)c1ccc(S(=O)(=O)N2CCC(C(=O)O)CC2)cc1[N+](=O)[O-]`, with 5.62%. `Fc1cccc(F)c1-c1nc(-c2ccncc2)no1`: the “hERG current change (%, negative = inhibition) at 1uM” value is recorded as 14.9%. For the compound `Cc1cccc(CSc2nnnn2-c2ccccc2)c1`, the “hERG current change (%, negative = inhibition) at 1uM” value was found to be 3.19%. For the compound `Cc1ccc(C(=O)NCCSC2CCCCC2)cc1S(=O)(=O)Nc1ccccc1`, the “hERG current change (%, negative = inhibition) at 1uM” value stood at 6.28%. Regarding `COc1ccc(C(=O)O)cc1NC(=S)NC(=O)/C=C/c1ccc(C(C)C)cc1`, the “hERG current change (%, negative = inhibition) at 1uM” value was 19%.

Regarding `O=C1CCCN1CCCNS(=O)(=O)c1ccc(Br)cc1`, the “hERG current change (%, negative = inhibition) at 1uM” value was 8.57%. Then `O=[N+]([O-])c1cccc(/C=N/NS(=O)(=O)c2ccccc2)c1`, with 10.2%. The result for `CC(C)(C)c1ccc(S(=O)(=O)N2CC3CC(C2)c2cccc(=O)n2C3)cc1` (stereo not drawn) reads 1.64%. Consider `CCN(CC)CCNC(=O)C(=O)NCC1OCCN1S(=O)(=O)c1cccs1` (stereo not drawn), for which the “hERG current change (%, negative = inhibition) at 1uM” value was found to be 11.9%. The result for `CCOC(=O)C1CCCN(Cc2ccc(OCC)cc2)C1` (stereo not drawn) reads -13.8%; that for `CCOC(=O)c1c(NC(=O)CN2C(=O)NC3(CCCCC3C)C2=O)sc(C(=O)N(C)C)c1C` (stereo not drawn), -4.29%. Then `O=C(NC(=O)c1cccc(F)c1)Nc1nc(-c2ccc(F)cc2)cc(C(F)(F)F)n1`, with 7.95%.

Take `Cc1cc(Cl)nc(Cl)c1C(=O)NCc1ccc(Cl)cc1`: the “hERG current change (%, negative = inhibition) at 1uM” value was determined as 5.58%.

As to `CCOC(=O)c1nn(C)c(C)c1Cl`, the “hERG current change (%, negative = inhibition) at 1uM” value is on record as 12%. The result for `Cc1cccc(N(C(=O)Cn2nnc(-c3ccc(C)o3)n2)C(C(=O)NC2CCCC2)c2ccncc2)c1` (stereo not drawn) reads 14.2%.

`CC(C)(C)c1nnc(SCC(=O)Nc2ccc(N3CCCCC3)cc2)n1N`: the “hERG current change (%, negative = inhibition) at 1uM” value is on record as 9.88%. Turning to `Cc1ccc(CN(C)C(=O)c2ccccc2Sc2ccccc2C#N)cc1`, the “hERG current change (%, negative = inhibition) at 1uM” value was found to be 18.7%. The result for `CCc1cc2ccc(C)cc2nc1SCC(=O)NNC(=O)c1ccco1` reads 5.1%. The result for `O=C(Nc1ccc(N2CCOCC2)cc1)c1ccc(S(=O)(=O)N2CCCCC2)cc1` reads 4.75%. The result for `COc1cc(=O)n(C)c2cc(N(C)C)ccc12` reads 25.3%. For `C=CCOC(=O)C1=C(C)NC(=O)NC1c1ccc(O)cc1` (stereo not drawn), the “hERG current change (%, negative = inhibition) at 1uM” value was 10.9%. The result for `CC1CCCCC1NC(=O)C1CCN(S(=O)(=O)N2CCOCC2)CC1` (stereo not drawn) reads -2.88%; that for `CCO[C@@H]1OC(C(=O)N2CCN(C)CC2)=C[C@H](C2CCCCC2)[C@H]1CCCO`, 7.63%. On to `CCc1cccc(OCCCCN(CC)CC)c1`, for which the “hERG current change (%, negative = inhibition) at 1uM” value was -8.42%. On to `COc1c(C)cc(Br)cc1C(=O)Nc1ccccc1C`, for which the “hERG current change (%, negative = inhibition) at 1uM” value turned out to be 10.6%.

Turning to `COc1ccc(COC(=O)C2CCN(S(=O)(=O)c3cccs3)CC2)cc1`, the “hERG current change (%, negative = inhibition) at 1uM” value was 5.9%. Then `COc1ccc(-n2nc(C(=O)NCC(=O)N3CCN(c4ccccn4)CC3)c3ccccc3c2=O)cc1`, with 10.2%; and `CCOc1ccccc1C(=O)NC(C(=O)NCc1ccc(F)cc1)C(C)C` (stereo not drawn), with -0.114%. `COc1cccc(NC(=O)c2cc3cccc(OC)c3o/c2=N\O)c1`: the “hERG current change (%, negative = inhibition) at 1uM” value is 6.96%.

Take `O=C(NNC1CC(=O)N(c2ccccc2)C1=O)c1ccc(COc2ccccc2Cl)o1` (stereo not drawn): the “hERG current change (%, negative = inhibition) at 1uM” value stood at 5.28%. As for `Cc1cc2nnc(SC(C)C)n2c2ccccc12`, the “hERG current change (%, negative = inhibition) at 1uM” value is listed as 4.74%.

As for `Br.Cc1ccc(C(=O)CSc2nc3c([nH]2)c(=O)n(C)c(=O)n3C)cc1`, the “hERG current change (%, negative = inhibition) at 1uM” value stood at 0.982%. As to `COc1cccc(NC(=O)c2ccccc2SC)c1`, the “hERG current change (%, negative = inhibition) at 1uM” value came to 9.46%.

With `O=C(CC(Nc1cccc(Cl)c1Cl)C(=O)O)c1ccccc1` (stereo not drawn), the “hERG current change (%, negative = inhibition) at 1uM” value amounted to 7.09%.

`COC(=O)c1c(N)sc(Cc2ccccc2)c1C`: the “hERG current change (%, negative = inhibition) at 1uM” value is 15.8%. Then `CCCNc1c(NC(=O)c2ccc3c(c2)OCO3)c(=O)oc2ccccc12`, with 15.1%; and `O=C(CC(CC(=O)c1ccccc1)C(=O)O)c1ccccc1`, with 12.5%. Take `Cc1noc(NS(=O)(=O)c2ccc(NC(=O)/C=C/c3ccc(C(C)C)cc3)cc2)c1C`: the “hERG current change (%, negative = inhibition) at 1uM” value amounted to 16.9%. The result for `O=C(Cn1c2[n+](c3ccccc31)CC(O)CS2)c1ccccc1.[Br-]` (stereo not drawn) reads 4.68%. Then `Cc1cc(NC(=O)CCOc2ccccc2)no1`, with -0.681%. `CCCC(CCC(=O)OC)(C(=O)OCC)c1csc(N)n1` (stereo not drawn): the “hERG current change (%, negative = inhibition) at 1uM” value is given as -4.83%. The result for `CCOC(=O)N1CCC(NC(=O)CN2C(=O)CSc3nc(C)cc(C)c32)CC1` reads 16.6%; that for `CC(=O)c1c(C)[nH]c(C(=O)COC(=O)CCCOc2ccccc2)c1C`, 3.62%; that for `COc1ccc([N+](=O)[O-])cc1NC(=O)C(C)OC(=O)CN1C(=O)C2CC=CCC2C1=O` (stereo not drawn), 4.05%. For the compound `O=C(NC(=S)Nc1cccc2cnccc12)c1ccccc1`, the “hERG current change (%, negative = inhibition) at 1uM” value was found to be 12.1%. The result for `Cc1cc([N+](=O)[O-])ccc1NC(=O)CSc1nnc(C)n1C` reads 14.4%; that for `CCc1ccc(NC(=O)C2CCCN(S(=O)(=O)c3ccc4[nH]c(=O)ccc4c3)C2)cc1` (stereo not drawn), 22.3%. With `COC(=O)CCCC1=CC2=CC(=O)C(C)(OC(=O)c3ccco3)C(=O)C2=CO1` (stereo not drawn), the “hERG current change (%, negative = inhibition) at 1uM” value is reported as -0.223%. Then `CC(C)(C)c1ccc(C2(C)NC(=O)N(CC(=O)Nc3ccc4c(c3)OCO4)C2=O)cc1` (stereo not drawn), with 1.3%; and `CC1=CC(C)(C)NC(=S)N1c1ccccc1C`, with 9.99%; and `Cc1nnc(NC(=O)CN2C(=O)c3ccccc3S2(=O)=O)s1`, with 7.28%. `c1ccc(Oc2ccc(-c3ccnc4ncnn34)cc2)cc1`: the “hERG current change (%, negative = inhibition) at 1uM” value worked out at 17.1%. Turning to `Cc1ccnc(NC(=O)c2sc3cc(Cl)ccc3c2Cl)c1`, the “hERG current change (%, negative = inhibition) at 1uM” value was determined as 16.4%. Turning to `CCCn1c(=N)c(S(=O)(=O)c2ccc(F)cc2)cc2c(=O)n3cccc(C)c3nc21`, the “hERG current change (%, negative = inhibition) at 1uM” value came out at 7.37%.

`COc1cccc(NC(=O)Nc2cccs2)c1`: the “hERG current change (%, negative = inhibition) at 1uM” value is -1.73%.

Turning to `O=C(Nc1cccc(F)c1)c1ccc(Br)o1`, the “hERG current change (%, negative = inhibition) at 1uM” value is -2.95%. Then `CC(=O)Nc1ccccc1NC(=O)C/C(C)=N/NC(=O)c1ccc([N+](=O)[O-])c(Cl)c1`, with 28.1%.

Take `COc1ccc(C(=O)N/C(=C\c2ccco2)C(=O)OCc2ccco2)cc1`: the “hERG current change (%, negative = inhibition) at 1uM” value was -4.42%.

For `Cc1ccccc1C1=N/C(=C/c2cccs2)C(=O)O1`, the “hERG current change (%, negative = inhibition) at 1uM” value came out at 16.6%. As to `CCN(CC)C(=O)c1cc2c(=O)c3cc(F)ccc3oc2nc1C`, the “hERG current change (%, negative = inhibition) at 1uM” value is on record as 9.93%.

Take `Nc1nonc1C(=O)NCCN=Cc1cc(Cc2ccccc2)cc(Br)c1O`: the “hERG current change (%, negative = inhibition) at 1uM” value is listed as -7.82%. Regarding `Cc1ccc2c(c1)c1c(n2CC2COC(C)(C)O2)C(=O)CCC1` (stereo not drawn), the “hERG current change (%, negative = inhibition) at 1uM” value is -2.2%. The result for `O=C(/C=C/c1c[nH]c2ccccc12)c1cccc2ccccc12` reads 17.7%. As to `Cc1cccc(OCC(O)CN2C(C)(C)CC(O)CC2(C)C)c1` (stereo not drawn), the “hERG current change (%, negative = inhibition) at 1uM” value was -6.61%. Then `COc1cccc(/C=C/C(=C2/C(=O)N(c3ccccc3)N=C2C)c2ccc(C)cc2)c1OC`, with 9.15%; and `Cc1ccc(/C=N/Nc2nc(C(C)(C)C)cs2)o1.Cl`, with 7.31%; and `Cn1c(/N=C/c2c[nH]c3ccccc23)nc2ccccc21`, with 12.2%. Then `O=C(CCC(=O)Nc1ccccc1)NNS(=O)(=O)c1ccc(Cl)cc1`, with 11.5%. Take `COc1ccccc1Cc1noc(-c2cc(Cl)ccc2OC)n1`: the “hERG current change (%, negative = inhibition) at 1uM” value worked out at 10.9%.
